Laboratory results: PubChem BioAssay AID1460 (National Center for Advancing Translational Sciences (NCATS), 2008)
The campaign covered roughly 270,000 compounds. About 5,800 (2.1%) were called active. This list was built around the results that the source calls inconclusive (neither active nor inactive); the mix of calls is not that of the screen. The call rests on the fitted dose curve; in most records, active means well fitted inhibition curve with a large enough effect; inconclusive means small, poorly fitted or top-dose-only effect; inactive means flat fitted curve, though single readings scatter. Where the call is inconclusive, the potency comes from a doubtful curve fit.
Further: nearly all actives have a fitted effect of over 55% in size.
Potency means the concentration at half of the fitted maximal effect; tags describe the fitted curve by direction and shape.

Each compound was assayed against Microtubule-associated protein tau (Homo sapiens) (UniProt P10636) (assay: qHTS for Inhibitors of Tau Fibril Formation, Thioflavin T Binding). Conditions: recombinant tau K18 P301L, heparin-induced fibrillization, ThT fluorescence; series mostly up to 57.4 µM.
Chain of UniProt P10636 (P10636 whole entry, looked up): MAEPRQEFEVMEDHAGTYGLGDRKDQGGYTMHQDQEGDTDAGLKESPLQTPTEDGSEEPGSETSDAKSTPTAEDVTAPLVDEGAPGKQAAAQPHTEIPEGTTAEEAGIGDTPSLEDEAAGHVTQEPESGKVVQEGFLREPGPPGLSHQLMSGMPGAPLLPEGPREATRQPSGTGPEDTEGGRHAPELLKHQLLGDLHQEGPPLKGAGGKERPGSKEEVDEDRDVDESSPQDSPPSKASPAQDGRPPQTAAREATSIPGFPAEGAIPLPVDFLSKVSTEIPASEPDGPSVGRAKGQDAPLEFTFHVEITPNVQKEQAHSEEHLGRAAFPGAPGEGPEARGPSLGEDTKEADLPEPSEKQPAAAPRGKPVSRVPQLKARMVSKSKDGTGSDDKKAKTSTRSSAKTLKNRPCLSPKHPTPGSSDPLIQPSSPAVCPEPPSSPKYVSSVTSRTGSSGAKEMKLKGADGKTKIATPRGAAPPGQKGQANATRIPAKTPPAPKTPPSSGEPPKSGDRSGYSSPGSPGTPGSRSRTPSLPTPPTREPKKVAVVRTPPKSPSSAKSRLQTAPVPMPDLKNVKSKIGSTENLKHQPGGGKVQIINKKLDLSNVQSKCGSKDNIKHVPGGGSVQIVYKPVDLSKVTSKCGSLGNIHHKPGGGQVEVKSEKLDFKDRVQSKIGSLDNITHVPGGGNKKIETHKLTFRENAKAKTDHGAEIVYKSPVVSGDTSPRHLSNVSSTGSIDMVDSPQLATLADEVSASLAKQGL
Outline: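 ThT emission at 510 nm, taken 1 hr after adding 30 uM dye, quantifies aggregates formed when 20 uM heparin acts on human tau K18 P301L for 6 hr at 37 C.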
CC(=O)c1ccc(NC(=O)c2cc(C3CC3)nc3c2c(C)nn3-c2ccc(C)cc2)cc1 was tested, and the Potency was “inactive”. c1cc(-c2nsc(-c3ccncc3)n2)ccn1 was tested, and the Potency was inconclusive: 22.4 µM [inhibitor, single point]. In the case of Clc1ccc(OCc2cn3ccccc3n2)c2ncccc12, the Potency is reported as inconclusive: 1.12 µM [inhibitor, partial curve, poor fit]. In the case of Cc1sc2nc(CSc3nnnn3-c3ccc(Cl)cc3)[nH]c(=O)c2c1C, the Potency is reported as inconclusive: 17.8 µM [inhibitor, partial curve]. In the case of CN(CCC#N)C(=O)COC(=O)c1c2c(nc3ccccc13)/C(=C/c1ccco1)CC2, the Potency is reported as inconclusive: 15.8 µM [inhibitor, partial curve]. CCc1ccc(O)c(N=Cc2cccc(C)c2O)c1 was tested, and the Potency was inconclusive: 28.2 µM [inhibitor, partial curve]. For O=C(O)c1ccc2c(c1)C1C=CCC1C(c1ccncc1)N2 (stereo not drawn), the Potency was active: 25.1 µM. CN1CCN(c2ccc(-c3ccc4ccccc4n3)cc2)CC1 was tested, and the Potency was inconclusive: 15.8 µM [inhibitor, partial curve]. With COC(=O)c1sccc1S(=O)(=O)N1CCN(c2ccc(C(C)=O)cc2)CC1 the Potency was inconclusive: 15.8 µM [inhibitor, partial curve]. With Cn1c(=O)c2c(n3c4ccccc4nc13)NC(=O)CC2c1cccc(Cl)c1 (stereo not drawn) the Potency was “inactive”. In the case of COc1cc(/C=C2/C(=O)NN(c3cccc(C)c3)C2=O)cc([N+](=O)[O-])c1O, the Potency is reported as active: 14.1 µM. For C/C(=N/NC(=O)c1ccoc1C)c1ccc(NC(=O)c2ccncc2)cc1, the Potency was inconclusive: 25.1 µM [inhibitor, partial curve]. Cc1ccc(-c2nn3c(=O)cc(CN4CCN(C(=O)c5ccc(C(C)(C)C)cc5)CC4)nc3s2)cc1 was tested, and the Potency was inconclusive: 10 µM [inhibitor, partial curve]. For CCc1ccc(S(=O)(=O)n2ccnc2)cc1, the Potency was “inactive”. For COC(=O)c1c(NC(=O)CC2SC(N)=NC2=O)sc2c1CCC(C(C)(C)C)C2 (stereo not drawn), the Potency was inconclusive: 20 µM [inhibitor, partial curve, poor fit]. For COc1ccc(OC)c(-n2c(-c3ccc(C)cc3)n[nH]c2=S)c1, the Potency was “inactive”. In the case of CCCSCCCNC(=O)CN1C(=O)CCn2nc(-c3cn(C)c4ccccc34)cc21, the Potency is reported as inconclusive: 25.1 µM [inhibitor, partial curve, poor fit]. Cc1ccc(C(=O)/C=C/c2cn(CC(O)CN3CCCCCC3)c3ccccc23)cc1 (stereo not drawn) was tested, and the Potency was active: 12.6 µM. Cc1ccc2nc(NC(=O)c3ccc(OCC4CCCO4)cc3)sc2c1 (stereo not drawn) was tested, and the Potency was inconclusive: 15.8 µM [activator, single point]. In the case of CC1Cc2ccccc2N1C(=O)CN(C)S(=O)(=O)c1cccc2cccnc12 (stereo not drawn), the Potency is reported as “inactive”. With COc1ccc(-c2nnc(SCC(=O)Nc3ccc4c(c3)OCCO4)n2N)cc1OC the Potency was inconclusive: 11.2 µM [inhibitor, partial curve]. In the case of COc1ccc(/C=C/C(=O)c2cccs2)c(OC)c1, the Potency is reported as inconclusive: 17.8 µM [inhibitor, partial curve]. With CCOC(=O)c1ccc(NC(=S)NCCCN2CCOCC2)cc1 the Potency was “inactive”. COc1cc2c(C(=O)N3CCN(c4cc(Cl)ccc4C)CC3)cn(CC(C)C)c(=O)c2cc1OC was tested, and the Potency was inconclusive: 11.2 µM [inhibitor, partial curve]. In the case of CCCCCCCNC1=CC(=O)CC(c2ccco2)C1 (stereo not drawn), the Potency is reported as “inactive”. In the case of CC(C)c1ccc(NC(=O)CN2C(=O)CCc3cc(S(=O)(=O)N4CCOCC4)ccc32)cc1, the Potency is reported as “inactive”. In the case of O=C(CSCc1c(Cl)cccc1Cl)NCC1CCCO1 (stereo not drawn), the Potency is reported as “inactive”. For COc1ccc(OCc2nc(C#N)c(NCc3ccccc3Cl)o2)cc1, the Potency was “inactive”. Cc1cc(C(=O)c2ccccc2)c(NC(=O)CCl)s1 was tested, and the Potency was inconclusive: 17.8 µM [inhibitor, single point]. In the case of Cc1ccccc1N(CC(=O)N/N=C/c1cc(C)n(-c2ccccc2C)c1C)S(C)(=O)=O, the Potency is reported as “inactive”. For O=C(/C=C/c1cn(CC(O)CN2CCOCC2)c2ccccc12)c1cccs1 (stereo not drawn), the Potency was active: 14.1 µM. C/C(=N/Nc1cc(-c2ccccc2)nc(-c2ccccc2)n1)c1ccc(O)cc1 was tested, and the Potency was inconclusive: 25.1 µM [inhibitor, partial curve]. In the case of Cc1cccc(OCC(=O)NCC(=O)N/N=C/c2c(C)[nH]c3ccccc23)c1, the Potency is reported as inconclusive: 5.01 µM [inhibitor, partial curve]. With Cc1c(C(=O)OCC2CCCO2)[nH]c2c1C(=O)CC(c1ccc(N(C)C)cc1)C2 (stereo not drawn) the Potency was inconclusive: 12.6 µM [inhibitor, partial curve]. Cc1cccc(C(=O)O/N=C2\CCCc3ccccc32)c1 was tested, and the Potency was inconclusive: 15.8 µM [inhibitor, partial curve]. O=[N+]([O-])c1ccccc1N/N=C/c1cccc(O)c1O was tested, and the Potency was inconclusive: 0.631 µM [inhibitor, full curve]. In the case of CC(C)=NNc1nc2c(c(=O)[nH]c(=O)n2C)n1CCc1ccccc1, the Potency is reported as inconclusive: 15.8 µM [inhibitor, partial curve]. In the case of O=C(Nc1ccc2c(c1)CCC2)c1cccs1, the Potency is reported as inconclusive: 8.91 µM [inhibitor, full curve]. For Cc1cc(C)c(S(=O)(=O)c2ccccc2C(=O)O)c(C)c1, the Potency was “inactive”. With OC[C@@H]1[C@@H](c2ccc(F)cc2)C(c2ccccc2)=NN1c1ccccc1 the Potency was inconclusive: 15.8 µM [inhibitor, partial curve, poor fit]. In the case of O=C(Nc1ncccn1)c1cc(-c2ccc(F)cc2)nc2ccccc12, the Potency is reported as “inactive”. COc1ccc(NS(=O)(=O)c2cccc(C(=O)N/N=C(\C)c3ccncc3)c2)cc1 was tested, and the Potency was “inactive”. In the case of CCOC(=O)Cc1cc(=O)n2[nH]c(-c3ccc(Cl)cc3)cc2n1, the Potency is reported as inconclusive: 14.1 µM [inhibitor, partial curve]. With N=C1SCC(=O)N1c1ncc(Cc2ccccc2Cl)s1 the Potency was inconclusive: 12.6 µM [inhibitor, partial curve, poor fit]. In the case of CN(C)c1ccc(CN(Cc2ccco2)C(=O)c2ccc(F)cc2)cc1, the Potency is reported as inconclusive: 39.8 µM [inhibitor, single point]. For CN(C)C(=O)c1ccc(-c2cncnc2NCc2cccs2)cc1, the Potency was “inactive”. For CN1CCN(C(=S)c2cn(Cc3ccc(F)cc3)c3ccccc23)CC1, the Potency was “inactive”. For COc1ccc(/C=c2/sc3nc(-c4ccccc4)c(-c4ccccc4)n3c2=O)cc1, the Potency was inconclusive: 2.82 µM [inhibitor, full curve]. In the case of CC(=O)Nc1ccc(S(=O)(=O)Nc2nc3n(n2)C(c2ccccc2)C=C(c2ccc(Cl)cc2)N3)cc1 (stereo not drawn), the Potency is reported as inconclusive: 20 µM [inhibitor, single point]. In the case of Cc1ccccc1NC(=O)c1ccccc1NC(=O)Cc1cccc2ccccc12, the Potency is reported as “inactive”. COc1ccc(CC(=O)N2CCN(c3ccc(C4=NNC(=O)CC4C)cc3)CC2)cc1 (stereo not drawn) was tested, and the Potency was inconclusive: 2.24 µM [inhibitor, full curve]. With CCC(C(=O)Nc1cc(C)ccc1OC)n1nnc(C(=O)OC)c1C(=O)OC (stereo not drawn) the Potency was “inactive”. With O=C(Nc1ccccc1N(C(=O)c1ccco1)S(=O)(=O)c1cccs1)c1ccco1 the Potency was inconclusive: 14.1 µM [inhibitor, partial curve]. In the case of COc1ccc(/C(O)=C2\C(=O)C(=O)N(c3cc(C)on3)C2c2ccccc2OC)cc1 (stereo not drawn), the Potency is reported as “inactive”. For CCOc1ccc(C(=O)Nc2ccc3c(c2)N(C(C)=O)CCC3)cc1OCC, the Potency was “inactive”. For CCCOC(=O)c1c(NC(=O)C2CCCO2)sc(C(=O)OC)c1C (stereo not drawn), the Potency was inconclusive: 10 µM [inhibitor, partial curve]. In the case of CCc1ccc(S(=O)(=O)N(C(C)=O)c2ccc3oc4c(c3c2)CCCC4)cc1, the Potency is reported as inconclusive: 7.08 µM [inhibitor, full curve]. In the case of Cc1cc(C(=O)N/N=C/c2c[nH]c3ccccc23)c(C)o1, the Potency is reported as inconclusive: 17.8 µM [inhibitor, partial curve]. With CCc1ccc(C2NC(=S)NC3=C2C(=O)N(c2ccccc2OC)C(c2ccc(CC)cc2)N3)cc1 (stereo not drawn) the Potency was inconclusive: 17.8 µM [inhibitor, partial curve]. In the case of CC1CCOC(c2coc3ccccc3c2=O)O1 (stereo not drawn), the Potency is reported as “inactive”. CC(C)c1ccc(/C=C/C(=O)NCCC2=CCCCC2)cc1 was tested, and the Potency was inconclusive: 11.2 µM [inhibitor, partial curve]. COc1ccccc1OCCn1cc(/C=N/NC(=O)c2ccncc2)c2ccccc21 was tested, and the Potency was inconclusive: 14.1 µM [inhibitor, partial curve]. For O=C(CNC(=S)N(Cc1ccccc1F)C1CCCCC1)NCCN1CCOCC1, the Potency was “inactive”. For CC(=O)Nc1cccc(NC(=O)Cc2csc(COc3cccc(C)c3)n2)c1, the Potency was “inactive”. For COc1ccccc1CN(CC(=O)NCc1ccco1)C(=O)CNS(=O)(=O)c1ccccc1, the Potency was “inactive”. With CCOC(=O)c1cc(S(=O)(=O)N2CCN(c3cc(Cl)ccc3C)CC2)[nH]n1 the Potency was “inactive”. With NS(=O)(=O)c1cccc(NC(=O)COC(=O)c2cc(-c3ccc(Cl)cc3)nc3ccccc23)c1 the Potency was “inactive”. For O=c1[nH]c2ccc(Cl)cc2c(=O)n1Cc1ccco1, the Potency was “inactive”. With c1cncc(CNc2ccc3c(c2)OCO3)c1 the Potency was inconclusive: 14.1 µM [inhibitor, partial curve]. For COc1ccc(OC)c(CC(NC(C)=O)C(=O)NC2CCN(c3cc(C)nc4ncnn34)CC2)c1 (stereo not drawn), the Potency was “inactive”. With CCOc1ccc(NC(=O)Cn2c(=O)c(CNc3ccc(OC)cc3)cc3ccc(OC)cc32)cc1 the Potency was inconclusive: 39.8 µM [inhibitor, single point]. For Cc1ccc(-c2cnc(NCc3c(F)cccc3Cl)n2C)cc1, the Potency was “inactive”. For C/C=C(\C)CN1CCN(c2ccccc2)CC1, the Potency was inconclusive: 6.31 µM [inhibitor, partial curve, poor fit].
